Results from PubChem BioAssay AID1671189 (National Center for Advancing Translational Sciences (NCATS), 2021).
The whole screen tested about 1,100 compounds, of which about 70 (6%) were called active. Inconclusive results (about 22%) are left out. Calls come from the whole dose curve; as a rule, active = well fitted curve in the direction sought with a large enough effect; inconclusive = small, poorly fitted or top-dose-only effect, or another doubt; inactive = no such curve, though single readings can be large or run the other way. The list shows a part of the results.

The compounds below were run against Polyunsaturated fatty acid lipoxygenase ALOX12 (Homo sapiens) (UniProt P18054) (assay: Confirmatory qHTS assay for inhibitors of human arachidonate 12S-lipoxygenase (ALOX12): Round 2). Details: purified human 12-LOX, xylenol orange absorbance; series mostly up to 125 µM; activity change, negative = inhibition: at the top concentration.
Sequence of UniProt P18054 (P18054 whole entry, looked up): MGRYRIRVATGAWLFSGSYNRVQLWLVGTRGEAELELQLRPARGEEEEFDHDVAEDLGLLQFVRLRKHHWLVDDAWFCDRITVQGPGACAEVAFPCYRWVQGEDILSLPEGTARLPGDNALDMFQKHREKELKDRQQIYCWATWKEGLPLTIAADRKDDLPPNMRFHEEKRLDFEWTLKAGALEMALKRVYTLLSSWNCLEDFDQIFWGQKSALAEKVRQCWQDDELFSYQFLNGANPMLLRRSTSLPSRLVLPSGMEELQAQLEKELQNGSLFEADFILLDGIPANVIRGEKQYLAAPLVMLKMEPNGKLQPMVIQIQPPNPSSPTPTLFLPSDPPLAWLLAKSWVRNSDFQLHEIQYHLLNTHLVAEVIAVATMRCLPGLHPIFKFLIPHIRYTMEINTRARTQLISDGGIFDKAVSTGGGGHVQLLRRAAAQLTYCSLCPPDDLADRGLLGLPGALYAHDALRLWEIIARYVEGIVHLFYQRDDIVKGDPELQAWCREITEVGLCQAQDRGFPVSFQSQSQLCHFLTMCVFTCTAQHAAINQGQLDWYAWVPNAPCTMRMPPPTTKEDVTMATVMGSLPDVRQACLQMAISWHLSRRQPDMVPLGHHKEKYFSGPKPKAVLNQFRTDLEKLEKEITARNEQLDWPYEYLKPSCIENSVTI
Text: Assay Provider: Theodore R. Holman Ph.D. University of California, Santa Cruz, California Human lipoxygenase 12hLO is a member of the closely related lipoxygenase family of enzymes which catalyze the site-specific oxidation of arachidonic acid to various hormone precursor molecules and as such is a candidate for drug development in a variety of disease areas, such as cancer and inflammation. Inhibition of 12hLO activity was screened by utilizing arachidonic acid as a substrate. The extent of hydroperoxide product formation was measured by a secondary chromogenic reaction in which xylenol orange (XO, Sigma-Aldrich, cat. number 39,818-7) reacts with the ferric ions produced from the reaction between the hydroperoxide and ferrous ions. The Fe (III)-XO complex is characterized with red-shifted absorbance at 560 nm. A purified preparation of human 12hLO was supplied by Dr. Holman laboratory, University of California, Santa Cruz.
PROTOCOL TABLE SEQUENCE No. (e.g., 1, 2, 3, etc.); […] (e.g., Cells, Incubation, Reagent, etc.); VALUE; DESCRIPTION 1; Enzyme; 3 uL; 150 nM 12hLO enzyme solution dispensed in 1536-well Greiner black, clear bottom plates. 2; Compound; 23 nL; compounds and controls were added. 3; Incubate; 15 min; room temperature. 4; Substrate; 1 uL; 40 uM arachidonic acid (final concentration). 5; Incubate; 30 min; room temperature. 6; Reagent; 4 uL; Fe-XO solution was added to each well. 7; Incubation; 30 min; room temperature 8; Detector; absorbance; Read 1 at 405 nm absorbance using ViewLux (PerkinElmer) CCD imager. 9; Detector; absorbance; Read 2 at 573 nm absorbance using ViewLux (PerkinElmer) CCD imager. NOTES (numbers refer to sequence above) 1; 150 nM 12hLO (final concentration) in buffer solution (25 mM Hepes, 0.01% Triton X-100, pH 7.0) was dispensed in columns 1, 2, 5-48. Column 1 is neutral (100% activity). Buffer only was dispensed in columns 3 and 4 as no enzyme negative controls. The plates were covered with metal lids with gas-exchange holes. 2; Compounds were pin transferred via a Kalypsys Pin Tool (Wako USA) in column 5 - 48. Control compound was transferred in column 2, titration of nordihydroguaiaretic acid (NDGA, Sigma-Aldrich, N5023) with top concentration of 20 mM in DMSO then 1:3 dilution in duplicate. Dilution factor of 23 nL into 4 uL final assay volume. 3; Covered assay plates were incubated for 15 min at room temperature. 4; Substrate was added to start the reaction; 40 uM arachidonic acid (Sigma-Aldrich, St. Louis, MO) was dispensed throughout the plate. 6; Chromogenic detection reagent solution (divalent iron/xylenol orange, Fe-XO) was added to each well: 200 uM xylenol orange, 300 uM ferrous ammonium sulfate prepared freshly in 50 mM sulfuric acid. 8, 9; Two absorbance readouts were obtained at 405 nm and at 573 nm using a ViewLux high-throughput CCD plate imager (PerkinElmer). The 573 to 405 (Read 2 / Read 1) absorbance ratio was used to compute reaction progress.
% is set by controls: 0 for no effect and ±100 for the full control effect; potency is the fitted concentration of half-maximal effect.

Row | Compound | activity change, negative = inhibition | Potency
1 | O=C(O)CCCC(=O)N1Cc2ccccc2CC2(CCCN2Cc2ccccc2)C1 (stereo not given) | inactive: -17.9% | 
2 | c1cncc(-c2n[nH]c(CC3CCNC3)n2)c1 (stereo not given) | inactive: 0.644% [at 64.5 µM] | 
3 | NC(Cc1ccccc1)C(=O)N1CCC2(CC1)CN(C(=O)c1ccc(Cl)cc1)CCO2 (stereo not given) | inactive: -0.789% | 
4 | Cn1cccc1CN1CCC2(CC1)C(=NC1CCCCC1)NC(=O)N2c1cc(F)cc(F)c1 | inactive: -14.9% | 
5 | O=Cc1ccccc1-c1ccc(O)cc1 | inactive: -36% [at 233 µM] | 
6 | CN1CC(=O)N(C2CCCNC2)Cc2c(NCC(C)(C)C)ncnc21 (stereo not given) | inactive: -16.5% | 
7 | COc1ccc(N2CC3CCC(C2)N3[S+](C)(=O)[O-])cc1 | inactive: -12.2% | 
8 | O=C(c1ccccn1)N1CCn2c(nn(-c3ccc(Cl)cc3)c2=O)C1 | inactive: -8.97% | 
9 | CC(C)NC(=O)NC1CC2(CCN(Cc3ccc(O)cc3)CC2)c2ccccc21 (stereo not given) | inactive: -20% | 
10 | O=c1n(-c2ccc(C(F)(F)F)cc2)nc2n1CCN(Cc1ccc(C(F)(F)F)cc1)C2 | inactive: -26% | 
11 | O=c1n(-c2ccc(Cl)cc2)nc2n1CCN([S+](=O)([O-])c1ccccc1)C2 | inactive: -18.8% | 
12 | COc1cccc(S(=O)(=O)N2CCC3(C2)C(=O)Nc2ccccc23)c1 (stereo not given) | inactive: -25.2% | 
13 | O=Cc1cccc(-c2cncc(C(=O)O)c2)c1 | inactive: -16.9% | 
14 | COc1cccc(N2C(=O)NC(=NC3CCCC3)C23CCCN(CC2CC2)C3)c1 (stereo not given) | inactive: -17.4% | 
15 | COc1cccc(NC(=O)Cn2c(=O)c3c(n2Cc2ccccc2)CN(Cc2ccccc2)CC3)c1 | inactive: 3.59% [at 64.5 µM] | 
16 | O=C1NC2(Cc3ccccc31)CN(C(=O)c1ccccc1F)C2 | inactive: -17% | 
17 | O=C(N1CCCC1)N1CCCC(c2nnc3n2CCNC3)C1 (stereo not given) | inactive: -4.99% | 
18 | CN1CC(=O)N(C2CCNC2)Cc2c(NCCCN3CCCCC3)ncnc21 (stereo not given) | inactive: -9.7% | 
19 | Cc1ccc(CCN2CCCCC23Cc2ccccc2CN(C(=O)CCCC(=O)O)C3)cc1 (stereo not given) | inactive: -13.9% | 
20 | CN1CC(=O)N(C2CCNC2)Cc2c1ncnc2N1CCC(N2CCCCC2)CC1 (stereo not given) | inactive: -1.1% | 
21 | CC(=O)Nc1ccc(CN2CC3(C2)C(=O)Nc2ccccc23)cc1 | inactive: -31.3% | 
22 | CNC(=O)[C@@H](C1CCCCC1)N1CCC[C@H]1C(=O)N1CCC1 |  | active: 15.8 µM
23 | CCOCCNc1ncnc2c1CN(C1CCCNC1)C(=O)CN2C (stereo not given) | inactive: -20.9% | 
24 | CCc1ccccc1CN1CCCC12Cc1ccccc1CNC2=O (stereo not given) | inactive: -16.1% | 
25 | O=C1NCc2ccccc2CC12CCN(Cc1cccc(F)c1F)CC2 | inactive: -12% | 
26 | CN1CC(=O)N(C2CCNCC2)Cc2c1ncnc2N1CCC(N2CCOCC2)CC1 | inactive: -17.5% | 
27 | O=C(c1ccc2c(c1)OCO2)N1CCC2(CC1)C(=O)Nc1ccccc12 | inactive: -8.81% | 
28 | COCc1nc(C2CC(N)C2)cc(N2CCC(c3[nH]ncc3C)CC2)n1 (stereo not given) | inactive: -0.605% [at 64.5 µM] | 

Row | Compound | activity change, negative = inhibition | Potency
29 | NCc1ccc(-c2cccc(C(F)(F)F)c2)cc1 | inactive: -28.6% | 
30 | COc1ccc(CN2CCC3(Cc4ccccc4CNC3=O)C2)c(O)c1 (stereo not given) | inactive: -3.04% | 
31 | COc1cccc(N2C(=O)NC(=NC3CCCCC3)C23CCCN(Cc2cccnc2)C3)c1 (stereo not given) | inactive: -17.1% | 
32 | COCCCNC(=O)c1cc(C2CC2)nc2onc(C3CCCN3)c12 (stereo not given) | inactive: -19.3% | 
33 | CN(C)C(=O)c1ccnc(-c2nnc3ccc(N4CCCCC4)nn23)c1 | inactive: -0.242% [at 64.5 µM] | 
34 | NCC(=O)N1CCC2(CC1)CN(C(=O)Cc1cccc(Cl)c1)CCO2 | inactive: 0.54% | 
35 | NCCC(=O)N1Cc2ccccc2CC2(CCCCN2CC2CCNCC2)C1 (stereo not given) | inactive: -0.735% | 
36 | O=C(N1CCCCC1)N1CCCC(c2nnc3n2CCNC3)C1 (stereo not given) | inactive: -7.37% | 
37 | Cc1ccc(CN2CC3(Cc4ccccc4NC3=O)C2)cc1 | inactive: -7.17% | 
38 | COc1ccc(C(=O)N2Cc3ccccc3CC23CCCN(C(=O)CCCN)C3)cc1 (stereo not given) | inactive: -9.85% | 
39 | O=C(C1CCCC1)N1Cc2ccccc2CC2(CCCN(CC3CCNC3)C2)C1 (stereo not given) | inactive: -16.8% | 
40 | CN1CC(=O)N(C2CCNC2)Cc2c(NCC3CCCCC3)ncnc21 (stereo not given) | inactive: -15% | 
41 | CC(C)NC(=O)N1CCC(c2nnc3n2CCNC3)CC1 | inactive: 7.33% | 
42 | CN1CC(=O)N(C2CCCNCC2)Cc2c1ncnc2N1CCC(N2CCCCC2)CC1 (stereo not given) | inactive: -3% | 
43 | CC(=O)NCCC(=O)N1Cc2ccccc2CC2(CCCCN2CC2CCNC2)C1 (stereo not given) | inactive: -11.6% | 
44 | CNC(C)c1c(F)cccc1F (stereo not given) | inactive: -14.6% [at 233 µM] | 
45 | COc1ccc(NC2CN(C(=O)OC(C)(C)C)C2)cc1 |  | inactive
46 | N[C@@H](Cc1c[nH]c2ccc(O)cc12)C(=O)O | inactive: 31% | 
47 | O=C1NCc2ccccc2CC12CCN(CCCc1ccccc1)CC2 | inactive: -9.31% | 
48 | O=C(c1ccccc1)N1CCC2(CC1)C(=O)NCN2C(=O)Cc1ccccc1 | inactive: -8.92% | 
49 | Cc1cc(C(=O)NCc2cccs2)c2c(C3CCNC3)noc2n1 (stereo not given) | inactive: -11.9% | 
50 | Cc1n[nH]c(C)c1CN1CCC2(CC1)CCN(C1CCOCC1)CC2CO (stereo not given) | inactive: 6.52% [at 64.5 µM] | 
51 | O=C(CCC[C@H]1NC[C@@H]2CC1CN(Cc1ccccc1)C2)NCc1ccc(F)cc1 | inactive: -6.95% [at 64.5 µM] | 
52 | CN(CC1COCCO1)C(=O)c1coc(COc2ccc3c(c2)OCO3)n1 (stereo not given) | inactive: 68.2% [at 64.5 µM] | 
53 | CCCN1CCCC12Cc1ccccc1CN(C(=O)CCCC(=O)O)C2 (stereo not given) | inactive: -24.9% | 
54 | O=C1NCc2ccccc2CC12CCN(Cc1ccc(F)cc1F)CC2 | inactive: -15.9% | 
55 | c1ccc2c(c1)COC1(CCNC1)CN2CC1CCCC1 (stereo not given) | inactive: -26.7% | 
